# From PubChem BioAssay AID1768 (National Center for Advancing Translational Sciences (NCATS), 2009)
# In all, about 270,000 compounds went through this assay and about 620 (0.23%) were called active. The shares of active, inactive and inconclusive entries below differ from those in the screen. Calls follow the shape of the dose curve; as a rule, active = well fitted inhibition curve with a large enough effect in the polarisation, with a control signal flat (not every such curve was filed as active); inconclusive = small, poorly fitted or top-dose-only effect, or effect the other way, or a change in a side signal; inactive = no such curve, though single readings can be large or run the other way; the % refers to the polarisation. Potencies beside an inconclusive call are fits to weak or partial responses and may not hold up. “Side channel” marks fits to a control or component signal instead of the main read-out.
# Target: Menin (Homo sapiens) (UniProt O00255)
# Chain of UniProt O00255 (O00255 whole entry, looked up): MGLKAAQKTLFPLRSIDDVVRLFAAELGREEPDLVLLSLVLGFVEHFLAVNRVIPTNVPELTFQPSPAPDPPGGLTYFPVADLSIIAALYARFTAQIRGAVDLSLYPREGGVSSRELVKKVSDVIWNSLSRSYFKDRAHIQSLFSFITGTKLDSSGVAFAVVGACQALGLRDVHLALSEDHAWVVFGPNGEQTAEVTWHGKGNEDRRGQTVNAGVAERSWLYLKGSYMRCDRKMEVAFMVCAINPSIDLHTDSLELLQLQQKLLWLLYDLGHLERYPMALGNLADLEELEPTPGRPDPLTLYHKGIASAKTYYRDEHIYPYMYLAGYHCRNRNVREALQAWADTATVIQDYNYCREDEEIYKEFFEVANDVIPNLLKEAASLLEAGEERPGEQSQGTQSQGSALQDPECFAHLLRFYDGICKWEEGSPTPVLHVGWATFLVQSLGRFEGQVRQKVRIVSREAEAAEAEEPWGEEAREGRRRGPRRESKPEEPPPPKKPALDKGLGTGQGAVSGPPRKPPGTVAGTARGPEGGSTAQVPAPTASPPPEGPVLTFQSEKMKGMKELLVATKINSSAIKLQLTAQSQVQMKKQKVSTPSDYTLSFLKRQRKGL
# Test: qHTS Assay for Inhibitors Targeting the Menin-MLL Interaction in MLL Related Leukemias: Competition With Texas Red Labeled MLL-derived Mutant Peptide; as to FP activity change, negative = inhibition: % of control where 0% means no effect
# Details: fluorescence polarization; FP activity change, negative = inhibition: at 61.6 µM (top of the series)
# Potency is read from the fitted curve at half-maximal effect; tags tell the direction and shape of the fitted curve or compound fluorescence and quenching.
Compound,Potency,"FP activity change, negative = inhibition"
COc1cccc(CC2(CO)CCCN(C/C=C/c3ccccc3OC)C2)c1 (stereo not given),"inconclusive: 39.8 µM [fluorescent, side channel, single point]",
COC(=O)CCC(=O)OC1(C)C(=O)C=C2C=C(C3CC3)N(c3ccc(OC)cc3)C=C2C1=O (stereo not given),,inactive: -8.61% [at 11.7 µM]
Cc1nc2oc3c(NCc4ccccc4)ncnc3c2c2c1COC(C)(C)C2,"inconclusive: 20 µM [inhibitor, single point]",
CCOc1ccc(S(=O)(=O)Nc2cc(Sc3ncn[nH]3)c3oc(=O)sc3c2)cc1,"inconclusive: 25.1 µM [quencher, side channel, single point]",
Cc1ccccc1C(=O)OCC(=O)N(C)c1ccccc1,"inconclusive: 25.1 µM [inhibitor, partial curve]",
CCn1cnc2sc(C(=O)Oc3ccc(Br)cc3)c(C)c2c1=O,inactive,
O=C1NN(c2ccccc2)C(=O)/C1=C\c1cccc(OC(=O)c2cccs2)c1,"inconclusive: 28.2 µM [quencher, side channel, partial curve]",
S=c1[nH]nc(-c2cc(-c3ccco3)[nH]n2)n1-c1cccc2ccccc12,"inconclusive: 25.1 µM [quencher, side channel, partial curve]",
COc1ccc2cc(C#N)c(SCC(=O)NNC(=O)Cc3ccccc3)nc2c1,active: 11.2 µM,
Cc1nn(-c2ccccc2)c2sc(C(=O)NNC(=O)COc3ccccc3)cc12,"inconclusive: 10 µM [quencher, side channel, partial curve]",
OC(CN1CCCCC1)Cn1c2ccccc2c2cc(Br)ccc21 (stereo not given),"inconclusive: 3.98 µM [fluorescent, side channel, partial curve]",
O=C(CC1S/C(=N/N=C/c2c[nH]c3ccccc23)NC1=O)Nc1ccccc1 (stereo not given),"inconclusive: 20 µM [quencher, side channel, single point]",
c1ccc(-c2cnn3c(-c4ccccc4)c(-c4ccccc4)nc3n2)cc1,inactive,
CCOC(=O)c1c(-c2ccc(C)cc2)cn2ccccc12,"inconclusive: 39.8 µM [inhibitor, single point]",
CC(C)(C)N(Cc1ccccc1)C(=O)CCc1ccccc1,"inconclusive: 3.55 µM [fluorescent, side channel, partial curve]",
CCc1cccc2c(/C=N/NC(=O)c3cccc(S(=O)(=O)Nc4ccccc4Cl)c3)c[nH]c12,"inconclusive: 10 µM [quencher, side channel, partial curve]",
O=c1[nH]c2cc(Cl)c(Cl)cc2[nH]c1=O,"inconclusive: 14.1 µM [quencher, side channel, partial curve]",
Cc1ccc(NC(=O)c2cn(-c3cccc(C)n3)cn2)cc1,"inconclusive: 39.8 µM [inhibitor, single point]",
O=c1cc(Cl)c(-c2ccccc2)nn1Cc1ccc(Cl)cc1,"inconclusive: 17.8 µM [fluorescent, side channel, partial curve]",
COc1ccc(-c2cc(C(F)(F)F)nc(-n3ccnc3C)n2)cc1,"inconclusive: 35.5 µM [inhibitor, single point]",

Compound,Potency,"FP activity change, negative = inhibition"
CN(Cc1ccco1)c1ncncc1-c1cccc(NS(C)(=O)=O)c1,"inconclusive: 7.08 µM [inhibitor, single point]",
CCOC(=O)c1sc(NC(=O)CSc2nc3c(cc2C#N)CCCCC3)c(C#N)c1C,"inconclusive: 20 µM [inhibitor, partial curve]",
O=C(Nc1cccc([N+](=O)[O-])c1)C1COc2ccccc2O1 (stereo not given),"inconclusive: 39.8 µM [quencher, side channel, single point]",
NNc1nc2c(Cl)cccc2s1,"inconclusive: 28.2 µM [quencher, side channel, single point]",
Cc1nc2c(C(=O)NCc3ccc(F)cc3)c[nH]n2c(=O)c1Cl,"inconclusive: 22.4 µM [quencher, side channel, single point]",
CCN1C(=O)/C(=C/C=C2/Sc3ccccc3N2CCO)SC1=S,"inconclusive: 2.82 µM [fluorescent, side channel, full curve]",
Cc1ccc(NC(=O)NC2(C(=O)NCc3ccco3)CCCCC2)cc1,"inconclusive: 39.8 µM [inhibitor, single point]",
Cc1ccc(C(c2nnnn2C(C)(C)C)N(Cc2ccco2)Cc2cccs2)cc1 (stereo not given),"inconclusive: 8.91 µM [inhibitor, single point]",
Nc1nonc1C(=O)NCCNCc1ccccc1OCc1ccc(F)cc1,"inconclusive: 20 µM [inhibitor, single point]",
CC1CCCC(NC(=O)COC(=O)CCSc2ccccc2)C1C (stereo not given),"inconclusive: 31.6 µM [fluorescent, side channel, partial curve]",
O=C(NC1CCN(Cc2ccc(Cl)cc2Cl)CC1)c1ccccc1,inactive,
COc1ccc(-c2cc(-c3cccs3)c(C#N)c(SCC(=O)NCc3ccccc3OC)n2)cc1,"inconclusive: 17.8 µM [fluorescent, side channel, partial curve]",
COc1ccc(-c2c(C3C4C=CCCC4(C)C(=O)N3Cc3ccccc3)ccc3ccccc23)cc1 (stereo not given),inactive,
Cc1cccc(N/N=C/c2ccccc2O)c1,"inconclusive: 12.6 µM [quencher, side channel, partial curve]",
Cc1cc(-c2c(C)[nH]n(-c3ccc(Cl)cc3)c2=O)n[nH]1,"inconclusive: 17.8 µM [quencher, side channel, single point]",
COc1ccc(C2=Nn3c(nnc3-c3ccc(OC)c(OC)c3)SC2)c(OC)c1,inactive,
Cc1ccc(S(=O)(=O)NC(=O)c2ccc(-c3ccc(-c4ccccc4)cc3)o2)c(C)c1,"inconclusive: 35.5 µM [quencher, side channel, single point]",
[O-][n+]1c2c(c3c4non(O)c4ccc31)CCCC2,"inconclusive: 31.6 µM [quencher, side channel, single point]",
C=CCOc1c(Cl)cc(CNc2ccc(N(C)C)cc2)cc1OC,"inconclusive: 35.5 µM [fluorescent, side channel, single point]",
CCN(CC)C(=O)CSC1=Nc2ccccc2C2=NC(Cc3c[nH]c4ccccc34)C(=O)N12 (stereo not given),"inconclusive: 25.1 µM [inhibitor, single point]",

Compound,Potency,"FP activity change, negative = inhibition"
Cc1ccc(C(C(=O)NC2CCCC2)N(Cc2cccnc2)C(=O)c2snc(C(N)=O)c2N)o1 (stereo not given),inactive,
Cc1cc(/C=C2/C(=O)N(C)C(=S)N2C)ccc1N1CCCC1,inactive,
CN(Cc1ccccc1)C(=O)C1CCCN(Cc2ccc(Cl)cc2)C1 (stereo not given),inactive,
O=C(COc1ccc2ccccc2c1)Nc1cccc(C(=O)Nc2ccccc2C(=O)O)c1,"inconclusive: 28.2 µM [quencher, side channel, single point]",
COc1ccc(-c2cc(C(=O)NCc3cccnc3)no2)cc1,"inconclusive: 39.8 µM [inhibitor, single point]",
Cc1sc2c(=O)n3c(nc2c1C(=O)NC1CCCCC1)CCCCC3,"inconclusive: 10 µM [inhibitor, partial curve]",
NC(=S)N/N=C/c1ccc(-c2ccccc2)o1,"inconclusive: 14.1 µM [quencher, side channel, partial curve]",
O=C(/C=C/c1ccc2ccccc2n1)c1cc(Cl)ccc1O,"inconclusive: 15.8 µM [quencher, side channel, single point]",
O=C(CN1/C(=C(/O)c2ccccc2)C(=O)c2ccccc2S1(=O)=O)c1ccccc1,"inconclusive: 17.8 µM [quencher, side channel, partial curve]",
CC1=CC2=NC(=O)/C(=C\c3cccn3CCOc3cc(C)ccc3C)C(=N)N2O1,"inconclusive: 12.6 µM [quencher, side channel, partial curve]",
N#CCSc1nc2sccc2c(=O)n1-c1ccccc1,"inconclusive: 31.6 µM [quencher, side channel, single point]",
C/C(=N\NC(=O)c1cccc(F)c1)c1ccc(Br)s1,"inconclusive: 14.1 µM [inhibitor, partial curve]",
O=c1[nH]c2ccccc2c2nc3ccccn3c12,"inconclusive: 39.8 µM [inhibitor, single point]",
Nc1[nH]ncc1N=Nc1ccc(Cl)cc1,"inconclusive: 20 µM [quencher, side channel, single point]",
Oc1ccc(Br)cc1C=Nc1ccc2c3c(cccc13)CC2,"inconclusive: 31.6 µM [quencher, side channel, single point]",
O=C1c2ccccc2-c2onc3ccc(NCCCn4ccnc4)c1c23,"inconclusive: 8.91 µM [fluorescent, side channel, partial curve]",
Cn1c(CCN2CCCCC2)nc2cc(NS(=O)(=O)c3ccccc3)ccc21,inactive,
CCOc1ccc(NC(=S)NC(=O)c2c(Br)cnn2C)c([N+](=O)[O-])c1,"inconclusive: 14.1 µM [quencher, side channel, partial curve]",
CCN1CCN(CCCNC(=O)c2cc3cc4ccc(OC)cc4nc3o2)CC1,"inconclusive: 39.8 µM [inhibitor, single point]",
CCOc1ccc2nc(SCC(=O)c3ccc(O)cc3O)sc2c1,"inconclusive: 39.8 µM [fluorescent, side channel, single point]",
